Laboratory results taken from ChEMBL document CHEMBL4888484, “Replenishing the malaria drug discovery pipeline: Screening and hit evaluation of the MMV Hit Generation Library 1 (HGL1) against asexual blood stage Plasmodium falciparum ,using a nano luciferase reporter read-out” (2022).
Out of some 150,000 compounds screened, about 540 (0.36%) showed an effect of 50% or more. Some of the results follow.

What follows are molecules tested on Plasmodium falciparum (assay: Primary screen in NF54 nanoGlo assay, in single point, at 2uM, 72h; a lower Z score goes with more inhibition). Details: timepoint 72 hour.
Assay type: functional, Erythrocyte

| Compound | % Inhibition [%] | Z score |
| --- | --- | --- |
| COc1ccc(CC(=O)N2CCCN(c3nc(Cc4ccc(C)cc4)nc4c3cnn4-c3ccccc3)CC2)cc1 | -2 | 0.26 |
| C[C@]1(c2noc(C3CC3)n2)CCCN(C(=O)C2CCCCC2)C1 | -6 | 0.89 |
| O=C(c1ccc2ncccc2c1)N1CC[C@@H]2CN(Cc3cccnc3)[C@@H]2C1 | -20 | 2.65 |
| O=S(=O)(NCCC1CC2CCC1O2)c1c[nH]c2ccccc12 (centres undefined) | -2 | 0.38 |
| NC(=O)c1cccc(CN2CCC3(CC2)C[C@@H]3c2nc(-c3cccc(Cl)c3)no2)c1 | -5 | 0.94 |
| CNC(=O)C1CCN(c2nc3ncn(CC(=O)Nc4ccc(F)cc4)c(=O)c3s2)CC1 | -24 | 2.12 |
| Cc1cccc(OCC(=O)N2C[C@@H](C)[C@@](C)(O)C2)c1 | -11 | 1.91 |
| CC(=O)N1CCCN([C@@H](C)c2nnc(-c3cccs3)o2)CC1 | 0 | 0.03 |
| O=C(NC1CC1c1ccc(F)cc1)c1cc(C2CC2)[nH]n1 (centres undefined) | 4 | -0.47 |
| Cc1ccc(C)c(C(=O)N(C)CC(=O)NC(C)C)c1 | -9 | 1.04 |
| CCn1ccc(C(=O)Nc2sc3c(c2C#N)CCC3)n1 | -22 | 2.77 |
| Cc1nc(CCN(C)Cc2cccnc2N)no1 | -13 | 2.53 |
| CCc1nc(-c2csc(S(=O)(=O)N3CCC4(CC3)OCCO4)c2)no1 | 0 | -0.05 |
| O[C@]1(CN2CCCC2)COCCN(c2ncnc3c2CCC3)C1 | -18 | 2.07 |
| Cc1ccc(NC(=O)c2cnn(-c3cccc(C)c3)c2C2CCN(C(=O)OC(C)(C)C)CC2)cc1 | -5 | 0.71 |
| Cc1c(Cl)cncc1NC(=O)N1CC(=O)NC(=O)C12CCCCC2 | -4 | 0.59 |
| O=C(c1conc1C1CC1)N1CCN(CC=Cc2ccccc2)CC1 | 6 | -0.79 |
| Cc1cccc(C2CC(N[C@@H](C)C(=O)NCc3ccco3)C2)c1 (some centres undefined) | 34 | -2.88 |
| N#Cc1nccnc1O[C@H]1CCN(C(=O)c2cc(C3CC3)on2)C1 | -1 | 0.06 |
| Cc1ccc(C(=O)Nc2nc(-c3ccc(C)s3)ns2)cc1 | -9 | 1.4 |
| C[C@H]1CN(C(=O)c2ccccc2OC2CC2)CCN1C(=O)c1cscn1 | 3 | -0.4 |

| Compound | % Inhibition [%] | Z score |
| --- | --- | --- |
| CC(C#N)NC(=O)C(c1ccccc1)C1CC1 (centres undefined) | -12 | 1.91 |
| O=C(C1CCCC1)N1CCN(Cc2ccncc2)[C@@H]2CS(=O)(=O)C[C@@H]21 | 4 | -0.59 |
| CN(C)C(=O)c1nc2ccc(Cl)cn2c1CN1CCOCC1 | 1 | -0.07 |
| CC(C)(C)c1ccc(C(=O)C(=O)N2CCC[C@H]2c2ccc[nH]2)cc1 | -12 | 1.71 |
| Cc1coc(-c2cc(NC(=O)c3cccc(N(C)C)c3)ccc2C)n1 | 6 | -0.61 |
| Cc1ccc(C(=O)NS(=O)(=O)c2cnc3n2CCC3)nc1C | 1 | -0.17 |
| CN(Cc1ccccc1)C1(CNC2CCOCC2)Cc2ccccc2C1 | -6 | 0.75 |
| CCCCN(CC)c1ncc(C(=O)Nc2ccc(OCC)cc2)c(N)n1 | 40 | -4.49 |
| Cc1cc(-c2c(C)sc(C)c2S(=O)(=O)Nc2cccc3ccccc23)on1 | 4 | -0.7 |
| COC(=O)[C@H](CN)Cc1cc(F)c(F)c(F)c1 | 12 | -1.36 |
| CCOc1ccc2c(n1)CCN(C(=O)c1ccc(OC)c(OC)c1)C2 | -9 | 1.65 |
| CCCN(CCC)C(=O)CCC(=O)Nc1cccnc1C#N | -2 | 0.39 |
| COc1ccc(CC(=O)N2[C@@H]3CC[C@H]2CC(NC(=O)c2cnc(C)cn2)C3)cc1Cl (some centres undefined) | -10 | 1.96 |
| C=CCNCc1cc(Br)ccc1F | -9 | 1.17 |
| O=C(N1CCCC1)N1CCN(c2ccccc2)CC1 | -3 | 0.63 |
| C=CCN(CC(=O)N(Cc1ccc(F)cc1)Cc1ccc(C)o1)C(=O)C1CCCC1 | -7 | 1.08 |
| CCN1C(=O)C2(CCN(C(=O)COc3cccc(C)c3)CC2)C[C@H]1C(=O)NCCCOC | 3 | -0.55 |
| CC(C)=CCNc1ccccc1C(=O)NCCC(N)=O | -6 | 1 |
| O=S(=O)(c1ccccc1)N1C[C@H](NCCc2cccc(F)c2)[C@@H](O)C1 | -5 | 0.8 |
| COc1ccc(Cn2c(C)c(CNC3CCCCCCC3)c(C(=O)O)c2C)cc1 | -12 | 1.42 |
| CN1CCN(Cc2cccc(OCCCCN3CCOCC3)c2)CC1(C)C | 0 | -0.02 |

| Compound | % Inhibition [%] | Z score |
| --- | --- | --- |
| CC(C)(C(=O)Nc1ccc2c(c1)OCO2)N(Cc1ccc(F)cc1)C(=O)Cn1nnc2ccccc21 | 10 | -1.2 |
| CCCc1nnc(N2CCC3(CCCC3)C2)s1 | -2 | 0.32 |
| CC[C@@]1(O)COC2(CN(C(=O)CCc3conc3-c3ccccc3)C2)C1 | -9 | 1.4 |
| COc1ccccc1NC(=O)Nc1cc(C)cc2c(-c3ccccc3)c(C(=O)N3CCOCC3)[nH]c12 | 29 | -3.27 |
| Cc1cccnc1C(=O)N1CC2(C[C@@H](c3nc(-c4ccncc4)no3)N(C)C2)C1 | -11 | 1.32 |
| Cc1c(N2CCC(C(=O)N3CCC(N4CCCCC4)CC3)CC2)c(=O)n(C)c(=O)n1-c1ccccc1 | 5 | -0.9 |
| Cc1c(C(=O)N2C[C@H]3C[C@H](c4ccccc4)CC[C@@]3(C(=O)O)C2)ccn1C | -2 | 0.27 |
| CN(Cc1n[nH]c2c1CCC2)Cc1cccc2nonc12 | -2 | 0.16 |
| NCCCC(=O)N1CCOc2c(O)cc(-c3nc4ccccc4s3)cc2C1 | -4 | 0.75 |
| CN(Cc1nccn1C)C(=O)c1cccc(-c2cc(N3CCCC3)cnn2)c1 | -9 | 1.41 |
| CCCN1CCn2nc(-c3nc4cc(OC)ccc4[nH]3)cc2C1 | -3 | 0.27 |
| COC1CCCN(C(=O)C2CC(Cc3cccc(Cl)c3)=NO2)C1 (centres undefined) | 7 | -0.89 |
| Cc1c(C(C)C)c(=O)n(-c2ccc(S(=O)(=O)N3CCCCC3)cc2)n1C | -5 | 0.62 |
| O=C(CN1c2ccccc2N(CC(=O)N2CCCCCCC2)S1(=O)=O)N1CCCCCCC1 | -11 | 0.96 |
| O=C(O)C1CCN(c2cc(-n3ccnc3)ncn2)CC1 | -1 | 0.26 |
| CCc1cc(N2C[C@@H]3NC(=O)CN(C)Cc4ccc(OC)c(c4)Oc4cccc(c4)CO[C@H]3C2)nc(N(C)C)n1 | 46 | -10.96 |
| O=C(c1cccc(-c2noc(C3CCC3)n2)c1)N1CCN(c2ccccc2)CC1 | -3 | 0.4 |
| O=C(Cn1cnc2ccccc21)N1CCC(Oc2ccncc2Cl)CC1 | -3 | 0.65 |
| Cc1cc(O[C@H]2CCCN(C(=O)CN3CCOC3=O)C2)nc(C)n1 | 8 | -1.16 |
| Cc1cc(C(=O)N(C)C[C@H]2CCCOC2)nn1-c1ccc(Cl)cc1Cl | -4 | 0.46 |
| CC[C@@H](C(=O)N1CCN(c2ccc(NC(=O)c3ccccc3F)cc2C(=O)NCc2ccc(F)cc2)CC1)c1ccccc1 | -26 | 2.25 |

| Compound | % Inhibition [%] | Z score |
| --- | --- | --- |
| CN(CCc1noc(C2CCCCC2)n1)S(=O)(=O)c1ccc(Cl)s1 | -6 | 0.61 |
| O=C(Cc1cccn1-c1ccc(Cl)cc1)NCCCN1CCCC1 | -8 | 1.5 |
| CN(C(=O)c1ccoc1)c1ncccc1F | -3 | 0.39 |
| CC1CC(NC(=O)CCc2cnccn2)C(=O)N1c1ccccc1 (centres undefined) | 4 | -0.76 |
| O=C(c1cncc(N2CC[C@H](CO)[C@@H](O)C2)n1)N1CCCCC1 | -15 | 1.9 |
| CC1c2ccccc2OC1C(=O)NCC1CN(C(=O)c2ccccc2)C2CCN1C2 (centres undefined) | -10 | 1.18 |
| Cc1ccc(S(=O)(=O)N2CCC(CNC(=O)C3CCOCC3)CC2)s1 | -2 | 0.31 |
| Cc1noc(C2CCN(C(C)c3cccc(C#N)c3)C2)n1 (centres undefined) | -5 | 0.93 |
| COc1ccc(-n2cc(-c3ccccc3)nc2NC(=O)CN(CC2CC2)C(=O)C(C)C)cc1OC | -3 | 0.49 |
| Cc1c(C(=O)N2CC3(CCOC3)C2)oc2ccccc12 | 4 | -0.59 |
| Cc1cc(C(=O)COc2cccc(S(C)(=O)=O)c2)c(C)n1[C@H]1CCS(=O)(=O)C1 | 27 | -3.61 |
| O=C1OCCN1CC(=O)N1CCC[C@H]1c1nc2ccccc2s1 | -1 | 0.07 |
| CCc1ccccc1CNC(=O)c1ccc(C(F)(F)F)c(=O)[nH]1 | 8 | -1.19 |
| O=C(c1ccco1)N1CCN(c2nccn3nc(-c4ccc(Cl)cc4)cc23)CC1 | -5 | 0.69 |
| COc1ccc(S(=O)(=O)N2CCN(c3nc4ccccc4nc3C(F)(F)F)CC2)cc1 | -12 | 2.33 |
| Cc1ccc(C)c(C(=O)Nc2nc3cc4c(cc3s2)OCCO4)c1 | -11 | 2.04 |
| Cc1csc([C@H](C)NC(=O)c2ncn[nH]2)n1 | -3 | 0.46 |
| CC1CC(C(N)=O)c2ccccc2N1Cc1nc(Cc2ccccc2)no1 (centres undefined) | -5 | 0.65 |
| CN(C)C(=O)c1cc(F)ccc1NCc1cn2ccccc2c1C#N | -13 | 1.73 |
